# Test results published in PubChem BioAssay AID1745853 (National Center for Advancing Translational Sciences (NCATS), 2022).
# Some of the results follow. Shown are side measurements of this screen, not its main read-out; they come without a call.
# How the values were obtained:
# Assay in all cases: Primary Screen for Target Class Profiling of Small Molecule Inhibitors of Methyltransferases
# [1] = target: Glycine N-methyltransferase (Homo sapiens) (UniProt Q14749); conditions: purified enzyme, MTase-Glo SAH luminescence; measured here: GNMT inhibition; at 40 µM; stronger effect = lower value
# Text: (§1) PI: Matthew D. Hall Ph.D. and Quinlin M. Hanson Ph.D.
# (§2) National Center for Advancing Translational Sciences (NCATS)
# (§3) National Institute of Health (NIH), Rockville, MD
# (§4) Target class profiling (TCP) is a chemical biology approach amenable to investigating understudied biological targets. TCP is achieved by developing a generalizable assay platform and applying it to screen a curated set of compound libraries against representative members of a target class. Small molecule methyltransferases (SMMTase) are a subclass of methyltransferase that act on metabolites to modulate signaling pathways, metabolize xenobiotics, or balance the available methyl pool. We screened four curated libraries totaling 27,574 unique compounds against the SMMTases nicotinamide N-methyltransferase (NNMT), phenylethanolamine N-methyltransferase (PNMT), histamine N-methyltransferase (HNMT), glycine N-methyltransferase (GNMT), catechol O-methyltransferase (COMT), and guanidinoacetate N-methyltransferase (GAMT). The data generated by this TCP can be leveraged for informed tool molecule development. For example, in the associated publication we identified a chemotype of HNMT-selective inhibitors. Additionally, we identified a putative SMMTase-selective inhibitor with potential as a tool molecule for studying broader methyltransferase biology.
# (§5) High-through put screening assays were developed at the National Center for Advancing Translational Science (NCATS) for the enzymes NNMT, PNMT, HNMT, GNMT, COMT, and GAMT. Enzymatic activity was measured as a function of SAM cofactor conversion using the MTase Glo kit (Promega) for all enzymes. All assays were performed in 1536-well format with substrates and SAM concentrations at KM values. Enzyme concentration and assay timing were optimized for 10-20% SAM conversion. Initial screening of 27,574 compounds was done as single-point assays using the highest compound concentration (40 uM). […] These compounds were replated in 11-point dose response and assayed against NNMT, PNMT, HNMT, GNMT, COMT, GAMT, and a counter-assay. The IC50 and efficacy (maximal response) values were determined for each dose-response curve. These values are also accounted for in the area under the curve (AUC) values.
# (§6) PROTOCOL TABLE (as described by Inglese J, Shamu CE and Guy RK. 2007)
# (§7) SEQUENCE No. (e.g., 1, 2, 3, etc.); […] (e.g., Cells, Incubation, Reagent, etc.); VALUE; DESCRIPTION.
# (§8) 1; Reagent; 2 uL; SMMTase Enzyme (2x) in reaction buffer, columns 1- 48.
# (§9) 2; Reagent; 1 uL; SAM (4x) in reaction buffer, columns 1-48.
# (§10) 3; Controls; 23 nL; DMSO in column 4; sinefungin in DMSO (0 uM - 40 uM) in 7-point 1:2 dilution series (n = 2) in column 2.
# (§11) 4; Compounds; 23 nL; Columns 5-48.
# (§12) 5; Reagent; 1 uL; Substrate (4x) in reaction buffer, columns 2-48.
# (§13) 6; Time; 20-30 min; Incubation.
# (§14) 7; Reagent; 1 uL; MTase-Glo reagent (5X), columns 1-48.
# (§15) 8; Time; 30 min; Incubation.
# (§16) 9; Reagent; 5 uL; MTase-Glo Detection reagent, columns 1-48.
# (§17) 10; Time; 30 min; Incubation, luminescence evolution.
# (§18) 11; Detection; Luminescence; ViewLux uHTS Microplate Imager (PerkinElmer).
# (§19) NOTES (numbers refer to Sequence numbers above)
# (§20) 1, 2, 5. White Medium Binding Greiner 1536-well plates (Cat #789175-F, Greiner Bio-One, Monroe, NC); Reaction buffer: 50 mM Tris, pH 8.0, 3 mM MgCl2, 1 mM EDTA, 50 mM NaCl, 1 mM DTT, and 0.1 mg/mL BSA. Evaporation was prevented by covering assay plates with metal lids containing holes to allow gas diffusion.
# (§21) 1. Six SMMTase were profiled: HNMT, GNMT, PNMT, COMT, NNMT, GAMT
# (§22) 5. The corresponding substrate was used for each enzyme: HNMT - 5.3 uM Histamine; GNMT - >500 uM Glycine; PNMT - 16.2 uM Norephinephrine; COMT - 13.7 uM Norephinephrine; NNMT - 3.8 uM Nicotinamide; GAMT - 2.5 uM Guanidinoacetate.6, 8, 10. Room temperature
# (§23) 6. Final reaction conditions: 10 nM COMT, 5 uM SAM, 15 uM norepinephrine, 50 mM Tris, pH 8.0, 3 mM MgCl2, 1 mM EDTA, 50 mM NaCl, 1 mM DTT, and 0.1 mg/mL BSA; refer to tables 2 and S1 for specific timing.
# 8. […]
# [2] = target: Histamine N-methyltransferase (Homo sapiens) (UniProt P50135); conditions: purified enzyme, MTase-Glo SAH luminescence; measured here: HNMT inhibition; at 40 µM; stronger effect = lower value
# Text: as §1, §2, §3, §4, §5, §6, §7, §8, §9, §10, §11, §12, §13, §14, §15, §16, §17, §18, §19, §20, §21, §22, §23
# 8. […]
# [3] = target: Guanidinoacetate N-methyltransferase (Homo sapiens) (UniProt Q14353); conditions: purified enzyme, MTase-Glo SAH luminescence; measured here: GAMT inhibition; at 40 µM; stronger effect = lower value
# Text: as §1, §2, §3, §4, §5, §6, §7, §8, §9, §10, §11, §12, §13, §14, §15, §16, §17, §18, §19, §20, §21, §22, §23
# 8. […]
# [4] = target: Nicotinamide N-methyltransferase (Homo sapiens) (UniProt P40261); conditions: purified enzyme, MTase-Glo SAH luminescence; measured here: NNMT inhibition; at 40 µM; stronger effect = lower value
# Text: as §1, §2, §3, §4, §5, §6, §7, §8, §9, §10, §11, §12, §13, §14, §15, §16, §17, §18, §19, §20, §21, §22, §23
# 8. […]
# [5] = target: Phenylethanolamine N-methyltransferase (Homo sapiens) (UniProt P11086); conditions: purified enzyme, MTase-Glo SAH luminescence; measured here: PNMT inhibition; at 40 µM; stronger effect = lower value
# Text: as §1, §2, §3, §4, §5, §6, §7, §8, §9, §10, §11, §12, §13, §14, §15, §16, §17, §18, §19, §20, §21, §22, §23
# 8. […]
# % is set by controls: 0 for no effect and ±100 for the full control effect.
SMILES,"activity change, negative = inhibition [1] [%]","activity change, negative = inhibition [2] [%]","activity change, negative = inhibition [3] [%]","activity change, negative = inhibition [4] [%]","activity change, negative = inhibition [5] [%]"
COC(=O)C1C(O)CCC2CN3CCc4c([nH]c5ccccc45)C3CC21 (configuration not stated),-9.9,1.35,,,
CCOc1cccc(C2c3cccn3-c3sc4c(c3CN2C(=O)Nc2ccc3c(c2)OCCO3)CCCC4)c1 (configuration not stated),-1.05,1.62,2.08,-4.99,2.55
COc1ccc(Cl)cc1NC(=O)C1CN(S(C)(=O)=O)CC12CCCCC2 (configuration not stated),-0.896,-0.172,1.88,-5.73,1.62
CC1CCCCC1NC(=O)C1(C)Cn2c(nc3ccccc32)C(=O)N1Cc1ccccc1F (configuration not stated),1.29,3.11,5.47,4.31,-4.45
O=C(NCc1ccccc1Cn1cccn1)c1ccc2cccc(F)c2n1,-19.5,-6.77,-10.3,-17.2,-13.3
CCOc1ccc(CCNC(=O)CCc2nnc3n(Cc4ccc(Cl)cc4)c(=O)c4ccccc4n23)cc1,-2.03,9.78,-4.08,-0.658,-4.62
CC(C)OCCCNC(=O)C1c2c(n(C)c3ccccc23)SCC(=O)N1CCC1=CCCCC1 (configuration not stated),8.64,5.26,0,1.53,9.19
O=C(CCn1ccc2cc(S(=O)(=O)N3CCCC3)ccc21)NC1CCCc2ccccc21 (configuration not stated),-2.56,2.96,1.34,1.02,-0.275
COC(=O)c1cc2n(n1)CC(C)(C(=O)NC1CCC(C)CC1)N(Cc1ccc(OC)cc1OC)C2=O (configuration not stated),5.12,10.1,3.64,-47.8,2.18
COc1cccc(CNC(=O)CCNc2cnc3cnccn23)c1,-2.24,0.861,0.124,-0.752,3.74
O=C(NCc1nnc2ccccn12)[C@H]1CNC[C@H](C(=O)N2CCOCC2)C1,-6.08,-6.16,-8.1,-9.19,-8
Cc1ccc(C(=O)Cn2nc3n(CC(C)C)c(=O)c4ccc(C(=O)NC5CCCC5)cc4n3c2=O)c(C)c1,-4.14,-0.654,1.08,-2.23,-0.417
NC(N)=NCCC[C@H](N)C(=O)O,-8.69,-0.995,4.13,-4.19,2.95
CCc1ccc(S(=O)(=O)c2nnn3c2nc(NCCOC)c2cc(Cl)ccc23)cc1,-7.53,-0.319,0,-1.31,-3.24
CC(C)n1nccc1S(=O)(=O)N[C@@H]1[C@@H](Cc2ccccc2)[C@H]2OCC[C@@H]12,0.836,3.35,-0.772,-3.34,9.43
